The full ranking holds about 33,000 sequences; the median of “E-score (-0.5 to 0.5)” is about -0.056, and the highest 2% start at about 0.38. The list shows a part of the results.
Biological target: Stb4 (UniProt P50104)
Assay: PBM E-score (8-mer binding enrichment) (E-score (-0.5 to 0.5)); higher = stronger / more preferred TF binding; most listed sequences are background and not binding sites
Settings: protein concentration: 200 nM; construct: GST-DNA-binding domain
Summary of the method: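 The E-score, a modified Wilcoxon-Mann-Whitney statistic, was computed by the Universal PBM Analysis Suite for every ungapped eight-base word pooled with its reverse complement. Scans behind it were normalised with masliner after bound GST-tagged yeast transcription factors were detected with fluorescent anti-GST. The proteins, at about 100-200 nM, had been applied to universal all-10-mer Agilent arrays made double-stranded by primer extension.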

Sequence	PBM E-score
GCTATGGA	-0.0234
AGGGAACT	0.00217
ATGAATAA	-0.163
CGCGCATC	0.0736
ACGCAGAT	0.162
CTCCTTCC	0.128
ATCTGGGA	-0.137
CAAGGGCG	-0.152
CCACCCAA	-0.154
GACGATGC	-0.101
AATAACGG	0.123
TCGCGAGA	-0.0707
AGCTACGG	-0.0387
AGTCAAGC	-0.171
ACGCGCCA	0.0029
ATTTTTAA	0.155
CAAAGGAC	-0.267
CGATGGTA	-0.0298
GCAACACC	0.0295
AATGGGCA	-0.208
CAACTATC	0.116
GCCACAGA	-0.0656
CGAAACCG	0.273
CAACAAGG	-0.101
CTGTGCAC	-0.106

Sequence	PBM E-score
AAAAATGA	-0.123
GCCGTTAC	0.197
CTCCTGTC	-0.226
ATAAGGAG	0.0336
GGTGGCAC	-0.0754
CTCCATCA	-0.00696
CAGCGGCG	0.1
CCTATCAA	-0.179
CGCAGGAA	-0.0189
TACTTAAA	-0.113
AACGCTGA	-0.187
TGTAAAAA	-0.0748
CAGGATGA	-0.184
AGTGCACG	-0.115
CGCCGCAA	0.0648
CGATTGCC	0.0231
ACTTGACT	-0.189
CGCTCCTA	-0.198
ATCGCGTC	-0.00416
AGGTTTTA	0.0162
CAATATGC	0.0107
CCTAGAAA	-0.0513
AGCAAAAG	-0.278
AAGTGTAT	-0.175
CTCGATAC	-0.0942

Sequence	PBM E-score
TATCTCCA	-0.105
CTATACAC	-0.123
CCTGCCAA	0.0231
AGAGGACG	-0.044
CTACTTGC	0.104
ATGCGTTC	0.275
AACTAGCT	-0.0434
GAACGGCC	0.166
ATCGGAGA	0.272
AGTGCTAG	-0.155
ACCCCGAA	0.369
AAGTCCTA	0.0417
AAACAGGG	-0.232
AAAGACGC	-0.136
ACGCTTGC	-0.158
ACGATACA	-0.21
AATCTGTC	0.071
GTGAACAA	0.00625
ACTACCCC	-0.0517
ACACGCAT	-0.172
CACCAAAC	-0.0932
ATTACTTG	-0.181
ATGCGCTG	-0.219
GAGGAACA	-0.0308
CCCCCCAA	-0.146

Sequence	PBM E-score
CCCGTGGA	0.225
CTGTGACC	-0.0795
GCGCCTAC	-0.0577
CCGCCGTA	0.225
GGGTGGGA	0.179
AGAAGGCG	-0.344
CTGGATCC	0.194
GAACTCTC	0.0244
AATACGGT	-0.00013
GATCCTTA	-0.0996
AAATTCGT	0.117
AACTCTAT	0.0804
TCCCTGAA	-0.161
CTAGTCTA	-0.315
AATCTTTA	0.0922
CCCGGTAA	0.3
ACTACTAA	0.0213
ACCAGTTG	-0.0457
AACCAGGA	-0.0237
TAGCAAAA	0.093
CCTAGACC	-0.261
CTACCATA	-0.154
GTGACCAC	0.128
AAAAGCTC	0.0724
CGTGTAAA	0.0295

Sequence	PBM E-score
CGCCACGC	-0.108
CCTTGGTC	-0.175
CTATAGAG	-0.191
AAACTTGG	-0.0999
ATAGCCTC	-0.00394
TGTCAACA	-0.0386
GCCGGATA	0.409
GGGTTTCA	0.0781
GGTCCCGA	0.39
CGCGCTAC	0.0503
CAGACAAC	0.0226
ATGTAACC	0.0982
CCTACTGA	-0.114
ACACGGAG	0.115
CTCTTTCC	0.123
ACTCGGTG	0.124
AACGTCCC	-0.00997
TAAGCCCA	-0.0698
GAAGTACA	-0.013
AAAGGAGC	-0.105
CACGCTAC	-0.156
CGATCGCC	0.0955
CCAGCTAC	-0.152
GAACCTCA	-0.0198
ACTGGTGG	-0.238

Sequence	PBM E-score
GGGTCGGA	0.392
CTATTACA	-0.15
AAGGGTCC	0.0575
GTGGACAA	-0.105
CGAGTGTC	0.0672
AGCGCCTA	-0.122
CAGCTTTA	-0.0389
CGGGTGTC	0.298
ACTAGCCA	-0.0771
AAGACTCC	-0.0274
CAAGTGGC	-0.273
TCTCAAAA	-0.0897
GCCAAGAA	-0.147
CGCGCTTC	0.0362
CGGCTCCC	0.241
CACCTGAC	-0.194
ATAAGCTG	-0.144
ATTCGGGG	0.34
ATCGCGCC	0.00024
GGAGTAAA	-0.012
AACAGCTT	-0.189
GGTTAGGA	-0.135
CGGAGCGA	0.28
AACCATAT	-0.127
GCACCGTA	0.0199

Sequence	PBM E-score
AACTACAA	0.168
AGTTCCGG	0.419
GCCTTACC	-0.134
AATGATGT	-0.117
TGAGTCCA	-0.11
GAAGCCTC	-0.118
GGTGCGGA	0.201
TAGACATA	0.0472
AGACTCAT	-0.141
ACTCAGAG	-0.105
ATTCGGAA	0.456
ACGAACCT	-0.207
CGCACAAA	-0.0812
ATCCAGCG	0.0613
AGGGTACT	-0.262
CTAGTATA	-0.0301
CGAGCTAC	0.0965
AGGTTGCG	-0.269
TACGGTCA	0.0631
ACCGTTGC	-0.0941
TCGCGGCA	0.111
CACGACTG	-0.0867

Reference: the supplement of paper PMC3334620
